The text below walks through data of patent US20230089620A1 (JIANGSU HENGRUI PHARMACEUTICALS, published 2023).

In assay [1] the target is T1, IL-2Rβ (CD2-H5221, Acrobiosystem) (UniProt P14784 27-239).
T1 construct: Bought reagent
T1 sequence (looked up): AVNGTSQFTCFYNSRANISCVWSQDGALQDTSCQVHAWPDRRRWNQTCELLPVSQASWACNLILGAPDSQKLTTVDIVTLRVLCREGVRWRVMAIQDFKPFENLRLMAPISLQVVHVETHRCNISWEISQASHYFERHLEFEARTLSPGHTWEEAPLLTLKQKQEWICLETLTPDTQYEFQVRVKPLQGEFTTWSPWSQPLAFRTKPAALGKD
Description: Octet, steady-state fit, fusion protein stationary, IL-2Rβ mobile. (Biolayer interferometry detects binding as a change in optical thickness at a sensor tip.)

For assay [2], the target named is T2, IL-2Rα (ILA-H52H9, Acrobiosystem) (UniProt P01589 22-217, limits assumed).
T2 construct: Bought reagent
T2 sequence (looked up): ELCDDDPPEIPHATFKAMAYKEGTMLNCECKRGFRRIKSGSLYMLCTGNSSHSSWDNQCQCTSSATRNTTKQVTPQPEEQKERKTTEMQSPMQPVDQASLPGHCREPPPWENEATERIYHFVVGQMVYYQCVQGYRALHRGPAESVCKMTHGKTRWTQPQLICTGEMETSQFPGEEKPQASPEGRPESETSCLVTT
Description: Octet, fusion protein on Protein A sensor, IL-2Rα 100-3.125 nM, 1:1 kinetic fit.

For assay [3], the target named is T2, IL-2Rα (ILA-H52H9, Acrobiosystem). Description: Octet, fusion protein on Protein A sensor, IL-2Rα 100-3.125 nM in solution.

The term Kd denotes a measure of binding affinity in units of concentration. What is called koff is a measure of how fast the partners let go of each other. By kon is commonly meant the second-order rate constant of association.

B1: A2-22-b fusion protein (IL-2 T3A - (G4S)5 - N-terminus of the light chain of A2-22) (other)
heavy: QVQLVQSGAEVKKPGASVKVSCKASGYTFTSYYMHWVRQAPGQGLEWMGIINPSGGSTSYAQKFQGRVTMTRDTSTSTVYMELSSLRSEDTAVYYCAREDWMEYEYYYGMDVWGQGTLVTVSS[letters of human IgG1 constant region with changes not shown]
light: [letters of about 150 residues not shown]GGGGSGGGGSGGGGSGGGGSGGGGSEIVLTQSPGTLSLSPGERATLSCRASQSVSNNYLAWYQQKPGQAPRLLIYGASSRATGIPDRFSGSGSGTDFTLTISRLEPEDFAVYSCQQYGSSPLTFGQGTRLEIKRTVAAPSVFIFPPSDEQLKSGTASVVCLLNNFYPREAKVQWKVDNALQSGNSQESVTEQDSKDSTYSLSSTLTLSKADYEKHKVYACEVTHQGLSSPVTKSFNRGEC
notes: Antibody-IL-2 fusion protein; human IL-2 with T3A joined by a (G4S)5 linker; IgG1 LALA
Turning to B1, the binding result in assay [1] is “no binding”. In assay [2], this molecule came in with a Kd of 25.3 nM, a koff of 0.0413 s⁻¹ and a kon of 1.63e+06 M⁻¹ s⁻¹.

B2: D2-60-b fusion protein (IL-2 T3A - (G4S)5 - N-terminus of the light chain of D2-60) (other)
heavy: QVQLVQSGAEVKKPGASVKVSCKASGYTFTSYGISWVRQAPGQGLEWMGWISAYNGNTNYAQKLQGRVTMTTDTSTSTAYMELRSLRSDDTAVYYCAREYSSWYSGGMDVWGQGTTVTVSS[letters of human IgG1 constant region with changes not shown]
light: [letters of about 150 residues not shown]GGGGSGGGGSGGGGSGGGGSGGGGSDIQMTQSPSSLSASVGDRVTITCRASQGISNYLAWYQQKPGKVPKLLIYAASTLQSGVPSRFSGSGSGTDFTLTISSLQPEDVATYYCQKYDSAPFTFGQGTRLEIKRTVAAPSVFIFPPSDEQLKSGTASVVCLLNNFYPREAKVQWKVDNALQSGNSQESVTEQDSKDSTYSLSSTLTLSKADYEKHKVYACEVTHQGLSSPVTKSFNRGEC
notes: as for B1
Regarding B2, in assay [1], the binding result is “no binding”. In assay [2], this molecule showed a Kd of 45.1 nM, a koff of 0.0561 s⁻¹ and a kon of 1.24e+06 M⁻¹ s⁻¹.

B3: A2-22-a fusion protein (IL-2 T3A - (G4S)5 - N-terminus of the heavy chain of A2-22) (other)
heavy: [letters of about 150 residues not shown]GGGGSGGGGSGGGGSGGGGSGGGGSQVQLVQSGAEVKKPGASVKVSCKASGYTFTSYYMHWVRQAPGQGLEWMGIINPSGGSTSYAQKFQGRVTMTRDTSTSTVYMELSSLRSEDTAVYYCAREDWMEYEYYYGMDVWGQGTLVTVSS[letters of human IgG1 constant region with changes not shown]
light: EIVLTQSPGTLSLSPGERATLSCRASQSVSNNYLAWYQQKPGQAPRLLIYGASSRATGIPDRFSGSGSGTDFTLTISRLEPEDFAVYSCQQYGSSPLTFGQGTRLEIKRTVAAPSVFIFPPSDEQLKSGTASVVCLLNNFYPREAKVQWKVDNALQSGNSQESVTEQDSKDSTYSLSSTLTLSKADYEKHKVYACEVTHQGLSSPVTKSFNRGEC
notes: as for B1
With B3, the binding result in assay [1] is listed as “no binding”. In assay [2], this molecule had a Kd of 40.6 nM, a koff of 0.0375 s⁻¹ and an on-rate (kon) of 922000 M⁻¹ s⁻¹.

B4: D3-68-b fusion protein (IL-2 T3A - (G4S)5 - N-terminus of the light chain of D3-68) (other)
heavy: QVQLVQSGPEVKKPGASVKVSCKASGYTFTSYGISWVRRAPGQGLEWMGWISAYNGNTNYAQKLQGRVTMTTDTSTSTAYMELRSLRSDDTAVYYCARDLQSPTYYYGSGVIDYWGQGTLVTVSS[letters of human IgG1 constant region with changes not shown]
light: [letters of about 150 residues not shown]GGGGSGGGGSGGGGSGGGGSGGGGSDIQLTQSPSTLSASVGDRVTISCRASRAVSPWLAWYQHRPGQAPKLLIYAASSLQSGVPSRFSGSGSGTDFTLTISSLQPEDFATYYCQQYRSYPFTFGPGTTVDIRRTVAAPSVFIFPPSDEQLKSGTASVVCLLNNFYPREAKVQWKVDNALQSGNSQESVTEQDSKDSTYSLSSTLTLSKADYEKHKVYACEVTHQGLSSPVTKSFNRGEC
notes: as for B1
For the molecule B4, the Kd in assay [1] was 1100 nM. For the same molecule, in assay [3], the binding result is reported as “no binding (tested: 100 nM (highest IL-2Rα concentration))”.

B5: A3-21-a fusion protein (IL-2 T3A - (G4S)5 - N-terminus of the heavy chain of A3-21) (other)
heavy: [letters of about 150 residues not shown]GGGGSGGGGSGGGGSGGGGSGGGGSEVQLLESGGGLAQPGGSLRLSCAGSGFTFSSYAMSWVRQAPGKGLEWVSGITGTGYRTYYADSVKGRFTVSRDNSRNTVYLQMNSLRAEDTAVYYCVRESGHYYGWFDSWGQGTLVTVSS[letters of human IgG1 constant region with changes not shown]
light: QSALTQPPSVSGAPGQRVTISCTGSSSNIGAGYNVHWYQQVPGTVPKLLIDGKGNRPSGVPDRFSGSKSGTSASLAITGLQAEDEADYYCQSYDYMLSGSVVFGRGTKLTVLGQPKANPTVTLFPPSSEELQANKATLVCLISDFYPGAVTVAWKADGSPVKAGVETTKPSKQSNNKYAASSYLSLTPEQWKSHRSYSCQVTHEGSTVEKTVAPTECS
notes: as for B1
Regarding B5, the binding result was “no binding” in assay [1] and “no binding (tested: 100 nM (highest IL-2Rα concentration))” in assay [3].
